# According to PubChem BioAssay (NCI):
#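 Interpolation was linear, between the two tested concentrations surrounding the appropriate level; five concentrations were tested over 48 hours in 96-well plates. GI50 marks 50% less growth. TGI denotes the concentration required for complete inhibition of growth.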 Bridge positions count the residues as written; N and C are the ends. Square brackets hold non-standard residues; d marks the D form. Peptide text beside a SMILES is read from it. ξ: configuration not given here. ξThr(3R) = C[C@@H](O)C(N)C(=O)O; S5 = C=CCCC[C@](C)(N)C(=O)O
# System: NCI-H322M lung
# Experiment: DTP human tumour cell line panel, 48 h
SMILES,TGI,GI50
CCOc1ccc(OCC)c([P+](c2ccccc2)(c2ccccc2)c2ccccc2)c1,40.7 µM,–
CCN1CCN(c2nc3ccccc3nc2C(=O)c2ccc(OC)c(OC)c2)CC1,> 100 µM,–
COC(=O)C1=C(OC(=O)/C=C/c2ccc(Cl)cc2)C(C(=O)OC)[C@]2(O)[C@@H](C(=O)OC)[C@H]1C[C@@H](c1ccccc1)[C@@H]2C(=O)OC (some centres undefined),> 100 µM,–
O=Cc1c(-c2ccccc2)[nH]c2ccccc2c1=O,> 100 µM,–
CCOC(=O)c1c(NC(=O)c2ccccc2)sc2c3c(ccc12)OCN(C)C3,3.07 µM,1.59 µM
NC(=O)CC1(O)C=C(Br)C(=O)C(Br)=C1,53.3 µM,21 µM
COc1c(O)cc2c(c1O)C(=O)C1=C(CCCC1)C2=O,70.8 µM,–
Clc1ccc(OCc2nnc3n2N=C(c2ccc(Br)cc2)CS3)cc1,> 100 µM,–
Cn1c2[n+](c3nc(N)[nH]c(=O)c31)C1OC(C2)C(O)C1O (centres undefined),> 100 µM,–
CCN(CC)CCC(CNc1ccnc2cc(Cl)ccc12)c1ccccc1 (centres undefined),51.1 µM,12.4 µM
Cc1cc(=O)n(-c2c(C)cccc2Cl)c(/C=C(\O)c2ccncc2)n1,> 100 µM,–
CC1(C)S[C@H](CN)N[C@H]1C(=O)OC(c1ccccc1)c1ccccc1,> 100 µM,–
c1ccc(-c2n(Cc3ccc4ccccc4c3)cc[n+]2Cc2ccc3ccccc3c2)cc1,2.82 µM,1.42 µM
NC(=O)NNCc1c(-c2ccccc2)no[n+]1[O-],> 100 µM,–
COc1ccc2c(c1)[n+](=O)c(C(=O)C/C(=N/NC(=O)C[N+](C)(C)C)C(=O)Nc1cccc(C)c1C)c(C)n2O,> 100 µM,–
COc1cccc(/C=N/[N-]C(N)=O)c1[O-].[Ni+2].[OH3+],2.53 µM,–
CC(=O)Oc1c(OC(C)C)c(C)c(O[Si](C(C)C)(C(C)C)C(C)C)c2[nH]c3ccccc3c12,> 100 µM,–
CCCC(C)NC(=O)c1ccc(N(C)Cc2cnc3nc(N)nc(N)c3n2)cc1 (centres undefined),69.6 µM,–
COc1cccc(C=C2N=C(c3ccccc3)N(n3c(-c4ccccc4)nc4ccccc4c3=O)C2=O)c1,> 100 µM,–
COc1ccc(-c2ccccc2)c2[nH]c3c(c12)CCNC3=O,> 100 µM,–
CS(C)(=O)=Nn1c(=O)n2n(c1=O)C1c3ccccc3C2c2ccccc21,> 100 µM,–
COc1ccc(-c2nn(-c3ccc(NC(=O)c4cc(Cl)cc(Cl)c4)cc3)cc2-c2ccncc2)cc1Cl,> 100 µM,> 100 µM
COc1ccc(Cl)cc1Nc1nc(C(F)(F)F)ccc1C(=O)N/N=C/c1cccnc1,> 100 µM,1.69 µM
O=C(O)C1CCCCN1C(=O)Cc1c[nH]c2ccccc12 (centres undefined),> 100 µM,–

SMILES,TGI,GI50
CCCCCCNC(=S)N/N=C(\C)c1ccccn1,23.2 µM,–
O=C(N/C(=C\c1ccccc1Cl)c1nc2ccccc2[nH]1)c1ccccc1,> 100 µM,–
CCOC(=O)c1c(-c2cccc(Cl)c2)c(C(=O)OC)c(C)c2sc(C=O)nc12,35.8 µM,–
COc1cc(/C=C/C(=O)/C=C/c2cc3ccc(Cl)cc3n(Cc3ccccc3)c2=O)ccc1O,7.54 µM,2.42 µM
CC/C(=N/O)c1ccc2[nH]c3c(C)cc([N+](=O)[O-])c(C)c3c2c1,> 100 µM,–
CCN(CC)c1ccc(C2Nc3ccc4ccccc4c3C3=C2C(=O)CCC3)cc1 (centres undefined),> 100 µM,–
OCCCSCCO,> 100 µM,–
O=C1c2cccnc2C(=O)c2c1c(C(=O)NCCn1ccnc1)c1ccccn21,8.59 µM,2.51 µM
CCOCC(=O)N(C)c1cccc2c3c(n(C)c12)CCCCC3,> 100 µM,–
N=c1ccc2nc(N)nn(O)c-2c1,> 100 µM,–
CC(C)CCC[C@@H](C)C1CCC2[C@@H]3CCC4C[C@@H](NS(C)(=O)=O)CC[C@]4(C)C3CC[C@@]21C (some centres undefined),> 100 µM,–
COc1cc(COC(=O)N2CC=CC2C(=O)O)c([N+](=O)[O-])cc1OC (centres undefined),> 100 µM,–
Cc1oc(N)c(S(=O)(=O)c2cc3ccccc3n(O)c2=N)c1C,> 100 µM,–
Cc1cccc(/C=N\NC(=S)N2CCCCC2)n1,> 100 µM,–
CC1C(=O)c2cc3c(cc2CCN(C)Cc2c1ccc1c2OCO1)OCO3 (centres undefined),> 75 µg/mL,34.9 µg/mL
Cc1nc(-n2nc(-c3ccccc3)cc2-c2ccccc2)sc1C(=O)/C=C/c1ccc(Cl)c(Cl)c1,> 100 µM,–
CC1(C)OCN(c2ccc(S(N)(=O)=O)cc2)Cn2c1nc1ccccc12,> 100 µM,–
COc1cc(-c2ccc(NC(=O)SCCC(=O)O)cc2OC)ccc1NC(=O)SCCC(=O)O,> 100 µM,–
CC[C@]1(O)CC2CN(CCc3c([nH]c4ccccc34)[C@@](C(=O)OC)(c3cc4c(cc3OC)N(C=O)[C@H]3[C@@](O)(C(=O)OC)[C@H](OC(C)=O)[C@]5(CC)C=CCN6CC[C@]43[C@@H]65)C2)C1 (some centres undefined),> 50 µM,23.1 µM
Cc1ccc(/C=C/c2c(C(=O)/C=C/c3ccc(Cl)cc3)c(C)nc3ccccc23)cc1,2.86 µM,1.49 µM
COc1cc(OC)c2c(=O)c3c([N+](=O)[O-])cccc3n(C)c2c1,> 100 µM,–
COc1cc2c(cc1O)CN1CCC23C=C[C@@H](O)CC13 (some centres undefined),> 100 µM,–
CCOc1ccc2c(c1)CN(Cc1ccc(Cl)cc1)CO2,55.7 µM,20 µM
COC1[C@H](NC(=O)OC(C)(C)C)C(=O)N1Cc1ccccc1 (some centres undefined),> 100 µM,–

SMILES,TGI,GI50
COc1cc(C2SCC(=O)N2c2ccc(NC(C)=O)cc2)cc(OC)c1OC (centres undefined),> 100 µM,–
COc1ccc(NC(=O)CC(=O)NNC(Sc2ccccc2)c2cc(N=Nc3ccc(Br)cc3)ccc2O)cc1 (centres undefined),> 10 µM,–
O=C1c2ccccc2C(=O)c2c1ccc1c(=O)n(-c3ccccc3C(F)(F)F)nnc21,7.97 µM,2.58 µM
O=C(O)c1c(Cl)c(Cl)c(Cl)c(Cl)c1C(=O)Nc1ccc2cn[nH]c2c1,> 100 µM,–
O=CNc1ccc(S(=O)(=O)c2ccc(NC=O)cc2)cc1,> 100 µM,–
CN=C(N)N=Nc1c(O)[nH]c2ccccc12,> 100 µM,–
O=S(=O)(O)c1ccc2c(N=Nc3ccc(N=Nc4ccccc4)cc3)c(O)c(S(=O)(=O)O)cc2c1,> 100 µM,–
Cc1cc(C)c2c(c1)N[S@@](=O)S2,> 100 µM,–
O=C1C=CC(=Nc2cccc3c(N=C4C=CC(=O)O4)cccc23)O1,> 100 µM,–
CCN(CC)C(=S)SC1C(=O)NC(=O)NC1=O,> 100 µM,–
CCN(CC)CCN1C(=O)C2C3C(=O)CC(C)(CC3C)C2C1=O (centres undefined),> 100 µM,> 100 µM
COc1ccc2nc3cc([N+](=O)[O-])ccc3c(NNc3ccccc3)c2c1,> 100 µM,19.6 µM
COC1=C(OC)C(=O)C(Sc2ccc3ccccc3c2)=CC1=O,17.8 µM,–
CSC1=C(C(=O)Nc2ccc(C)cc2)C(N)=NC1=O,> 100 µM,–
CCCCCCCCCCCCCCCCCCOc1ccccc1CC(=O)OCC[N+](CC)(CC)CC,11 µM,4.03 µM
CCN(CC)CC(=O)NC1c2ccccc2Oc2c(C)cccc21 (centres undefined),> 100 µM,–
COc1ccc(-n2c3c(c4cc(O)ccc42)Cc2ccccc2C3=O)cc1,> 100 µM,–
Clc1ccc(CCc2ccncn2)c(Cl)c1,> 100 µM,–
Cc1c(-c2ccc(O)cc2)oc(=O)c2ccc(O)cc12,> 100 µM,39.3 µM
N#Cc1ncn(CCO)c1N,> 100 µM,–
CCOC(=O)CCC(NC(=O)c1ccc(N=Cc2nc3ccccc3nc2-c2ccccc2)cc1)C(=O)OCC (centres undefined),> 100 µM,–
CC12C(=C(C#N)C(=N)N1c1ccc(Cl)c(Cl)c1)C=C(O)CC2SCCS(=O)(=O)O (centres undefined),> 100 µM,–
CCN(CC)CCCNc1ccc([N+](=O)[O-])c2nc3ccc(OC)cc3c(N)c12,2.08 µM,–
COC(=O)C1C(=O)O[C@@H](c2ccc(OC)c(OC)c2OC)C1C(=O)OC (mixture of isomers),> 100 µM,–

SMILES,TGI,GI50
CN(C)/C=N\c1nncc2[nH]cnc12,> 100 µM,–
NC(=O)c1nnsc1NN=O,> 100 µM,–
CN(C)C(=O)NC(=S)N(C)C,> 100 µM,–
C[C@@H]1CCC2C(C)(C)C(/C=C\C=O)C3(C)OC213 (some centres undefined),> 100 µM,–
Cc1ccc2nc(-c3ccc(NC(=O)c4ccc(N)cc4)c(S(=O)(=O)O)c3)sc2c1,> 100 µM,–
CCOC(=O)c1nc2ccccc2nc1Nc1ccc(OC)cc1,> 100 µM,–
CCOC(=O)N(C)C(=C(F)F)C(F)(F)F,> 100 µM,–
C=C1C(=O)O[C@H]2[C@H]1CC/C(Cn1cc(-c3cccc(Cl)c3)nn1)=C\CC[C@@]1(C)O[C@@H]21,5.58 µM,2.17 µM
CC(=O)N[C@H](C(=O)N[C@@H](CCCNC(=N)N)C(=O)N[C@@H](CCCCN)C(=O)N[C@@H](CCCNC(=N)N)C(=O)NC(C(=O)N[C@@H](CC(C)C)C(=O)N[C@@H](CCCNC(=N)N)C(=O)N[C@@]1(C)CCC/C=C\CCC[C@@](C)(C(=O)N[C@@H](CCCNC(=N)N)C(=O)N[C@@H](CCC(=O)O)C(=O)N[C@@H](CC(C)C)C(=O)N[C@H](C(=O)N[C@@H](CCC(=O)O)C(N)=O)C(C)C)NC(=O)[C@H](CCC(N)=O)NC(=O)[C@H](CC(C)C)NC(=O)[C@H](CC(C)C)NC1=O)[C@@H](C)O)C(C)C (stereo partly drawn) (Ac-VRKR[ξThr(3R)]LR[S5]LLQ[S5]RELVE-NH2; staple (Z) 8-12),13.2 µM,5.78 µM
COc1cc(/C=N/c2ccccn2)cc(OC)c1OC,> 100 µM,–
CCCCCCCCCC(CCCC(O)CC(=O)O)OC1OC(COC2OC(C)C(OC(C)=O)C(O)C2O)C(O)C(O)C1OC1OC(CO)C(O)C(O)C1OC1OC(C)C(OC(=O)CC(C)C)C(O)C1O (centres undefined),> 35 µM,> 35 µM
N#Cc1ccccc1C#C/C=C\C#CC#C/C=C\C#Cc1ccccc1C#N,63.3 µM,22 µM
O=[N+]([O-])c1ccc(C2=NOC(c3ccc(Cl)cc3)N2C23CC4CC(CC(C4)C2)C3)cc1 (centres undefined),> 100 µM,–
CC(c1ccccc1)[C@@H](C(=O)Nc1ccc(I)cc1F)N1C(=O)N[C@H](c2ccc(OC[C@H](O)CO)cc2)C1=O (some centres undefined),> 25 µM,3.19 µM
COc1cc(C(C[N+](=O)[O-])SC(C)=O)ccc1OCc1ccccc1 (centres undefined),21.2 µM,–
N/C(=N\N=C\c1cc(I)cc(I)c1O)NO,> 100 µM,–
O=C(Cn1c(=O)oc2ccc(C(=O)c3ccc(F)cc3)cc21)c1ccccc1,> 100 µM,–
CC1CCC(=O)C(C(O)CC2CC(=O)N(c3ccccc3)C(=O)C2)C1 (centres undefined),> 100 µM,–
O=C(O)C(O)C(O)C(O)C(O)C(=O)O (centres undefined),> 100 µM,–
COc1cc(/C=C/C(=O)N2CCC=CC2=O)cc(OC)c1OC,15.8 µM,4.2 µM
CCOC(=O)[C@@H]1ON2O[C@H](OC3CCCCC3c3ccccc3)C[C@H]3OC(=O)[C@@H]1C32 (some centres undefined),> 100 µM,–
COc1cccc(/C=C/c2ccnc3ccccc23)c1OC,> 10 µM,–
COC(=O)C1CC23C4=C(CCC41)CCC1CN4CC(C)C(CC(OC(C)=O)C12COC(C)=O)C43O (centres undefined),> 100 µM,–
CCN(CC)c1ccc(C2NC(=O)c3ccccc3N2)cc1 (centres undefined),> 93.4 µM,–
